{"source": "paper PMC4336329", "about": "(PLoS ONE, 2015)", "note": "The campaign covered roughly 310,000 compounds. About 2,200 (0.71%) showed an effect of 50% or more. Effects have a minus sign here. The list shows a part of the results."}
{"target": "human ether-à-go-go-related gene (hERG) potassium channel (human, UniProt Q12809)", "sequence (Q12809 whole entry, looked up)": "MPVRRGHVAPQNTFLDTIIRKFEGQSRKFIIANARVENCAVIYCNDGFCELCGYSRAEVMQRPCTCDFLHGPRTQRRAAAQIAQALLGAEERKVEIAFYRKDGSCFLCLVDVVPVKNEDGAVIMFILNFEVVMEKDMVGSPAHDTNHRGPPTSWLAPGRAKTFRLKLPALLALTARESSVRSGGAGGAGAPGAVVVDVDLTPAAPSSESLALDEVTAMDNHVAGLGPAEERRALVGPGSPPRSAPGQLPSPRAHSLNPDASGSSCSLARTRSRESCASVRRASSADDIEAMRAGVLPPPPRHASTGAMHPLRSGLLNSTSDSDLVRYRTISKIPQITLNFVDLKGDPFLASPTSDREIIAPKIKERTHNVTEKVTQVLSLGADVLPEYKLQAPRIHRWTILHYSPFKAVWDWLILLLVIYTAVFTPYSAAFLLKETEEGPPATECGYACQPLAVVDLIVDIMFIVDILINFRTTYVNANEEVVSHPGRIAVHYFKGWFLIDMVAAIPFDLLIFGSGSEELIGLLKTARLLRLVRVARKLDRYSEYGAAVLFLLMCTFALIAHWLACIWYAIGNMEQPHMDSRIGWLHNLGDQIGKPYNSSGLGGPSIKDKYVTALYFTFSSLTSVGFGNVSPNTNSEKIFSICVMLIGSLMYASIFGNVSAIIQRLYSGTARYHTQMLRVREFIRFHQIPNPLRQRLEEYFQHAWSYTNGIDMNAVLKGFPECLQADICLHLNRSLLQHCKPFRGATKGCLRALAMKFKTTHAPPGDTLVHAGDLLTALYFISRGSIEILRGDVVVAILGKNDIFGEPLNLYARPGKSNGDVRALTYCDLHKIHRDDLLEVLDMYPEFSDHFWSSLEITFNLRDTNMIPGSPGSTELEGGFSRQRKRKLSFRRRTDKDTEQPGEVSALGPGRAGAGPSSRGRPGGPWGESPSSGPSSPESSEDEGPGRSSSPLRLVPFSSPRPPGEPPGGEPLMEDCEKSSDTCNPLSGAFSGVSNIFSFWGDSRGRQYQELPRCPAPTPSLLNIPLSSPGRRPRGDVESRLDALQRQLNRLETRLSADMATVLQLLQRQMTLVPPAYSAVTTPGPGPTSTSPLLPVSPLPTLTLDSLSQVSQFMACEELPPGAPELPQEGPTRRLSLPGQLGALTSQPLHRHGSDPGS", "assay": "primary screen, population patch clamp on CHO cells stably expressing hERG", "units": {"hERG current change (%, negative = inhibition) at 1uM": "%"}}
{"smiles": "COc1cccc(N2CC(C(=O)Nc3nnc(SCC(=O)NCC4CCCO4)s3)CC2=O)c1", "note": "(stereo not shown)", "hERG current change (%, negative = inhibition) at 1uM": 3.68}
{"smiles": "Cc1cnc(C(=O)N2CCN(c3ccc(C(F)(F)F)cn3)CC2)cn1", "hERG current change (%, negative = inhibition) at 1uM": -0.383}
{"smiles": "COC(=O)[C@@]12CCCN1[C@H](c1ccc(-c3ccc(OC)cc3)c(OC)c1)[C@@H]1C(=O)N(C)C(=O)[C@@H]12.O=C(O)C(F)(F)F", "hERG current change (%, negative = inhibition) at 1uM": 10.5}
{"smiles": "S=c1[nH]c(-c2ccccc2)cn1/N=C/c1cccnc1", "hERG current change (%, negative = inhibition) at 1uM": 11}
{"smiles": "Cc1ccc2cc(C#N)c(N3CCN(C)CC3)nc2c1", "hERG current change (%, negative = inhibition) at 1uM": 5.71}
{"smiles": "Br.N=C(N)SCc1nc2ccccn2c1Br", "hERG current change (%, negative = inhibition) at 1uM": -0.92}
{"smiles": "CCCCCNCc1ccc(Br)cc1.Cl", "hERG current change (%, negative = inhibition) at 1uM": -4.86}
{"smiles": "CC(=O)c1c(C)nn(-c2ccccc2)c1C", "hERG current change (%, negative = inhibition) at 1uM": 15.5}
{"smiles": "Cc1csc(N2CCCC2c2nc3cc(Cl)c(N4CCCCC4)cc3n2CCCO)n1", "note": "(stereo not shown)", "hERG current change (%, negative = inhibition) at 1uM": -4.89}
{"smiles": "Cl.OC(CC#CCN1CCCCCC1)(c1ccccc1)C1CCCC1", "note": "(stereo not shown)", "hERG current change (%, negative = inhibition) at 1uM": 4.13}
{"smiles": "CC(C)(C)c1ccc(OCCC(=O)Nc2ccc(N3CCOCC3)cc2N2CCOCC2)cc1", "hERG current change (%, negative = inhibition) at 1uM": 5.25}
{"smiles": "N#C/C(C(=S)Nc1ccccc1)=C1/NN=C(N2CCOCC2)N1c1ccccc1", "hERG current change (%, negative = inhibition) at 1uM": 12.5}
{"smiles": "CC(=O)Nc1ccc(N2Cc3ccccc3C2)cc1", "hERG current change (%, negative = inhibition) at 1uM": 11.8}
{"smiles": "Cc1cc(C(=O)NC(C)C2CC2)c(Cl)cc1Cl", "note": "(stereo not shown)", "hERG current change (%, negative = inhibition) at 1uM": 16.4}
{"smiles": "CCc1cc(=O)[nH]c(SCC(=O)Nc2cc(C)on2)n1", "hERG current change (%, negative = inhibition) at 1uM": 7.23}
{"smiles": "COc1cc(C)c(S(=O)(=O)n2c([N+](=O)[O-])cnc2C)cc1C", "hERG current change (%, negative = inhibition) at 1uM": 15.6}
{"smiles": "COc1cc2c(cc1OC)C(C1C(=O)CCCC1=O)N(C(=O)CCl)CC2", "note": "(stereo not shown)", "hERG current change (%, negative = inhibition) at 1uM": 9.33}
{"smiles": "CCOc1ccc(CN(C)CC(=O)Nc2cccc3ccccc23)cc1OC.O=C(O)C(=O)O", "hERG current change (%, negative = inhibition) at 1uM": -1.33}
{"smiles": "O=C(c1ccc(-c2nnc(-c3ccccc3)o2)cc1)N1CCCCCC1", "hERG current change (%, negative = inhibition) at 1uM": 12.8}
{"smiles": "CC(=O)N/C(=C/c1ccccc1)C(=O)N1CCCCC1", "hERG current change (%, negative = inhibition) at 1uM": 12.6}
{"smiles": "COc1ccc(N(CC(=O)NC2CCCCC2)C(=O)CCCC(=O)Nc2ccccn2)c(OC)c1", "hERG current change (%, negative = inhibition) at 1uM": 1.88}
{"smiles": "Cc1cccc(COc2ccccc2C(=O)NC2CCC(O)CC2)c1", "note": "(stereo not shown)", "hERG current change (%, negative = inhibition) at 1uM": 10.7}
{"smiles": "CCOc1ccc(CCNC(=O)c2ccc3nc(N4CCOCC4)sc3c2)cc1OCC", "hERG current change (%, negative = inhibition) at 1uM": 5.1}
{"smiles": "Cc1oc(/N=C/c2cccc([N+](=O)[O-])c2)c(C#N)c1C", "hERG current change (%, negative = inhibition) at 1uM": 11.1}
{"smiles": "CCn1nc(C)c(NC(=O)/C=C/c2cnn(C)c2)c1C", "hERG current change (%, negative = inhibition) at 1uM": -12.4}
